Data: PubChem BioAssay AID759 (NMMLSC, 2007)
In all, about 190,000 compounds went through this assay and about 270 (0.14%) were called active. This list was built around the results that the source calls inconclusive (neither active nor inactive); the mix of calls is not that of the screen.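 The calls were made as follows: active = GTP binding activity at least 20% away from the 100% baseline, either lowered as inhibitor or raised as activator; inconclusive = flagged as likely green fluorescent, judged across all proteins in the well; inactive = the rest.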

biological target: GTPase HRas (Homo sapiens) (UniProt P01112); experiment: HRas wt fluorescent GTP binding changes, either direction – biochemical, wildtype, bead-based flow cytometry, multiplex, primary screen (AID 759); conditions: GST-Ras wt beads, Bodipy-FL-GTP binding, at 10 µM, actives lie on both sides;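 also: 0% = unlabeled GTP competition control and 100% = no-compound control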
UniProt P01112, sequence (P01112 whole entry, looked up): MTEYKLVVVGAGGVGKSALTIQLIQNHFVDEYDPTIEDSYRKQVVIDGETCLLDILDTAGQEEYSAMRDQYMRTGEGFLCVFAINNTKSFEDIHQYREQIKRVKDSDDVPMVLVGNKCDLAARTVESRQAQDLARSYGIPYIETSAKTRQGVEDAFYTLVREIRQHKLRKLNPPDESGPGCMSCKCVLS

Row | SMILES | GTP binding activity
1 | CC[C@H](C)[C@H](NC(N)=O)C(=O)NCCc1ccc(Cl)cc1 | inconclusive: 93%
2 | O=C(NC1CCCC1)C(c1ccco1)N(Cc1ccccc1)C(=O)c1csnn1 (stereo not drawn) | inconclusive: 93%
3 | C/C(=N\Nc1nc2c(s1)CCCC2)c1ccccc1 | inconclusive: 106%
4 | CCCCNC(=O)CSc1nc2ccccc2c(=O)n1CCNC(C)=O | inconclusive: 105%
5 | O=C(c1cccc(F)c1)N1CCN(S(=O)(=O)c2ccccc2)CC1 | inconclusive: 107%
6 | COc1ccccc1/C=N/NC(=O)CCn1cnc2ccccc21 | inconclusive: 101%
7 | CCOc1cc(S(=O)(=O)NC2CCCCC2)ccc1F | inconclusive: 87%
8 | Cc1ccc(-n2nc3cc(Cl)c(NC(=O)c4ccco4)cc3n2)cc1 | inconclusive: 110%
9 | O=C(NC(=S)Nc1cccnc1Cl)c1ccco1 | inconclusive: 93%
10 | COc1ccccc1Nc1nc(C)cs1 | inconclusive: 104%
11 | c1ccc(CNCC2COc3ccccc3O2)cc1 (stereo not drawn) | inconclusive: 105%
12 | COc1cc(/C=N/NC(=O)c2sc(N)c(C#N)c2C)cc(Br)c1O | inconclusive: 82%
13 | C/C(=C\c1ccccc1)C(=O)NCCc1ccccc1 | inactive: 98%
14 | CCCN=Cc1ccc(O)cc1 | inactive: 97%
15 | COc1ccc(NC(=O)c2c(SC)nsc2SC)cc1 | inactive: 101%
16 | COc1cc(/C=C2\C(=O)ON=C2c2ccccc2)cc(Cl)c1O | inconclusive: 91%
17 | CCS(=O)(=O)N1CCN(c2ccc([N+](=O)[O-])c(NCc3cccnc3)c2)CC1 | inconclusive: 96%
18 | O=C1Nc2ccccc2SC(c2ccccc2)C1O (stereo not drawn) | inconclusive: 104%
19 | COc1ccccc1Nc1nnc(SCC(=O)NC(=O)Nc2ccc3c(c2)OCCO3)s1 | inconclusive: 97%
20 | O=C(NCCCn1ccnc1)c1noc2c1CCCC2 | inconclusive: 106%
21 | COc1cc2c(cc1NC(=O)COC(=O)Cn1cnc3ccccc31)oc1ccccc12 | inconclusive: 93%
22 | Cc1ccc(C(=O)NC(=S)NCc2ccco2)cc1 | inconclusive: 93%
23 | COc1cc(-c2nnc(SCC(=O)N(C)C3CCS(=O)(=O)C3)o2)cc(OC)c1OC (stereo not drawn) | inconclusive: 94%
24 | CC(C(=O)Nc1ccccc1-c1ccccc1)N1CCCCC1 (stereo not drawn) | inconclusive: 105%

Row | SMILES | GTP binding activity
25 | Cc1ccc(CN2CCN(Cc3ccc4cc(F)ccc4n3)CC2CCO)o1 (stereo not drawn) | inactive: 92%
26 | CC(=O)N1CCC(N(CCCOC(C)C)C(=O)Nc2ccc(C)c(C)c2)CC1 | inconclusive: 93%
27 | CCOc1cc(-c2nc(-c3ccccc3OC)no2)cc(OCC)c1OCC | inconclusive: 106%
28 | CCOc1ccc(NC(=S)N2CCN(CCN3C(=O)c4cccc5cccc(c45)C3=O)CC2)cc1 | inconclusive: 91%
29 | Cc1ccc(OCCSc2nc(N)cc(N)n2)cc1 | inconclusive: 88%
30 | COc1ccc(-c2nc(C#N)c(N3CCN(c4ccccc4)CC3)o2)cc1 | inconclusive: 95%
31 | Cc1nc2nc(SCC(=O)NCc3ccco3)nn2c(C)c1Cc1c(F)cccc1Cl | inactive: 97%
32 | N#Cc1cc(-c2ccccc2)nnc1Oc1ccccc1Cl | inconclusive: 95%
33 | C=CCn1c(O)c(N=NC(=O)c2ccccc2NS(=O)(=O)c2cccs2)c2ccccc21 | inactive: 88%
34 | CCC(=O)Oc1ccc(C(=O)Nc2ccc3c(c2)C(=O)N(C2CCCCC2)C3=O)cc1 | inconclusive: 102%
35 | O=C(c1cc(F)ccc1F)C1CCCN(C(=O)CCc2cnccn2)C1 (stereo not drawn) | inconclusive: 95%
36 | CC(C)CNC(=O)COC(=O)CNC(=O)c1cc(Cl)cc([N+](=O)[O-])c1 | inconclusive: 101%
37 | Cc1cc(NC(=O)COC(=O)c2ccco2)no1 | inactive: 97%
38 | Fc1ccc(CSc2ccc3nnc(-c4cccnc4)n3n2)cc1 | inconclusive: 85%
39 | COc1cc(C(=O)OCC(=O)Nc2ccc3c(c2)OC(F)(F)O3)ccc1OCc1c(C)noc1C | active: 43%
40 | COc1cc(N/C=C2\CC(=O)NC(C)=C2C#N)cc(OC)c1OC | inactive: 102%
41 | COC(=O)CCC/C=C1/SCC(NC(=O)c2ccccc2)/C1=N/O (stereo not drawn) | inactive: 102%
42 | CCCOc1ccc(N2C(=O)CC(SCCN)C2=O)cc1 (stereo not drawn) | inconclusive: 104%
43 | CC1C(=O)CCN(C(C)C)C1C (stereo not drawn) | inconclusive: 104%
44 | C[C@H](NC(=O)Nc1ccc2c(c1)OCCO2)C(=O)O | inconclusive: 106%
45 | CCOc1ccc(NC(=O)c2cc3c(C)nc4ccccc4c3o2)cc1 | inconclusive: 96%
46 | Cc1ccc2sc(N(CCCN(C)C)C(=O)c3ccc(Br)s3)nc2c1C | inactive: 97%
47 | N#Cc1c2c(c(-c3ccccc3Cl)[nH]c1=S)CCCC2 | inactive: 85%
48 | COC(CNC(=O)C1CCCN1C(=O)OCc1ccccc1)OC (stereo not drawn) | inactive: 115%

Row | SMILES | GTP binding activity
49 | Cc1nn(CC(=O)NCc2cccnc2)c(=O)c2ccccc12 | inconclusive: 83%
50 | O=C(Nc1nnc(-c2ccccc2Cl)o1)c1nc2ccccc2s1 | inactive: 97%
51 | COC(=O)c1c(NC(=O)COC(=O)Cn2cnc3ccccc32)sc2c1CCCC2 | inconclusive: 94%
52 | O=S1(=O)CCN(Cc2cccc(Cl)c2)CC1 | inconclusive: 105%
53 | CNC(=S)N=Nc1c(O)[nH]c2ccccc12 | active: 79%
54 | Cc1cc(C(=O)CSc2nn3c(=O)c(C(C)(C)C)nnc3s2)c(C)n1C1CC1 | inconclusive: 94%
55 | COc1cc2cc(CN(Cc3cccnc3)C(=O)NCc3ccccc3)c(=O)[nH]c2cc1OC | inactive: 100%
56 | COc1cccc(C2CC(c3ccccc3)=NN2S(=O)(=O)c2ccc(C)cc2)c1OC (stereo not drawn) | inconclusive: 137%
57 | COC(=O)c1cc(Cl)c(NC(=O)c2cc3ccccc3o2)cc1OC | inactive: 99%
58 | CC(Nn1cnnc1)c1cc(Cl)ccc1O (stereo not drawn) | inconclusive: 87%
59 | CSc1cccc(NC(=S)N(CCN(C)C)C(C)c2ccccn2)c1 (stereo not drawn) | inconclusive: 94%
60 | CC(C)NC(=O)COC(=O)c1ccccc1Oc1ccccc1 | inconclusive: 104%
61 | COC(=O)c1cc(=O)c2c([N+](=O)[O-])ccc(OC)c2o1 | inconclusive: 89%
62 | O=C(NCCO)Nc1ccc2nc(-c3ccco3)c(-c3ccco3)nc2c1 | inconclusive: 83%
63 | CC(=O)OC[C@H]1O[C@@H](O/N=C/C[C@@H]2C=C[C@H](OC(C)=O)[C@@H](COC(C)=O)O2)[C@H](OC(C)=O)[C@@H](OC(C)=O)[C@@H]1OC(C)=O | inactive: 98%
64 | Cc1nn2c(N)csc2nc1=O | inconclusive: 68%
65 | CC(=O)N1CCC(N(CCN2CCOCC2)C(=S)Nc2cc(C)ccc2C)CC1 | inconclusive: 103%
66 | CCOC(=O)c1sc(NC(=O)C2CCC2)cc1C | inactive: 96%
67 | COc1ccc2cc(CN(Cc3ccco3)C(=S)NCC3CCCO3)c(=O)[nH]c2c1 (stereo not drawn) | inconclusive: 93%
68 | O=C1N(c2cccc3ccccc23)C(c2ccccc2)N2CCCN12 (stereo not drawn) | inconclusive: 104%
69 | CC1(C)Cc2c(sc3c2C2=NCCN2C=N3)CS1 | inactive: 106%
70 | COc1ccc(C2CC3CC(c4ccccc4)N2O3)cc1 (stereo not drawn) | inconclusive: 113%
71 | CCOC(=O)c1c(C)[nH]c(C)c1C(=O)COC(=O)c1ccc(Cl)c(S(=O)(=O)NCc2ccccc2)c1 | inactive: 97%
72 | O=C(NC1CCCC1)C1CC(=O)N(C2CCCCCCC2)C1 (stereo not drawn) | inconclusive: 101%

Row | SMILES | GTP binding activity
73 | O=C(COC(=O)CNS(=O)(=O)c1ccccc1)Nc1ccc(Cl)cn1 | inconclusive: 107%
74 | CCCCn1c(=O)c(CCC(=O)OCC(=O)NCc2ccc(OC)c(OC)c2)nc2ccccc21 | inconclusive: 92%
75 | COc1cc(/C=C2/C(=O)NN(c3cccc(F)c3)C2=O)ccc1OC(=O)c1ccco1 | inconclusive: 95%
76 | Cc1cc(C(F)(F)F)c(C#N)c(SCC(=O)Nc2nc3ccccc3s2)n1 | inconclusive: 132%
77 | CCCN1C(=O)/C(=C\C=C2\N(CC)c3ccccc3C2(C)C)SC1=S | inconclusive: 129%
78 | COCc1cc(=O)n2[nH]c(SCc3ccccc3)nc2n1 | inconclusive: 104%
79 | Brc1ccc(Cn2c(-c3cncs3)nc3ccccc32)cc1 | inconclusive: 104%
80 | Cn1c(=O)cc(SCC(=O)NCCCN2CCOCC2)c2ccc(Cl)cc21 | inconclusive: 102%
81 | O=C(N/N=C/c1ccc[nH]1)c1ccc(O)cc1 | inconclusive: 93%
82 | O=C(O)CC(NC(=O)c1sc2ccccc2c1Cl)c1ccc(OC2CCCC2)cc1 (stereo not drawn) | inconclusive: 83%
83 | Cc1ccc(/C(N)=N/OC(=O)CCC2CCCCC2)cc1 | inactive: 109%
84 | C=CCn1c(CNc2ccccc2)nnc1SCC(=O)N/N=C/c1ccc(O)cc1O | inconclusive: 92%
85 | Cc1[nH]nc2c1C(c1ccc(Cl)cc1)C(C#N)=C(N)O2 (stereo not drawn) | inconclusive: 95%
86 | COC(=O)c1sccc1NC(=S)N1CCN(c2ccccc2)CC1 | inconclusive: 96%
87 | S=C(Nc1ccc(Cl)c(Cl)c1)NC1CCCCC1 | inconclusive: 107%
88 | Cc1ccc(-n2c(SCC(=O)Nc3ccc4c5c(cccc35)CC4)nc(O)c(C)c2=O)cc1 | inconclusive: 94%
89 | CCOC(=O)c1c(C)[nH]c(C(=O)COC(=O)C(C)N2C(=O)C3CCCCC3C2=O)c1C (stereo not drawn) | inactive: 97%
90 | CCOc1c(O)ccc(/C=C2\SC(=S)NC2=O)c1[N+](=O)[O-] | inconclusive: 85%
91 | CCS(=O)(=O)N1CCN(c2ccc([N+](=O)[O-])c(NCC3CCCO3)c2)CC1 (stereo not drawn) | inconclusive: 94%
92 | COC(=O)[C@@H](NC(=O)O[C@@H]1C(=O)c2ccc(OC)cc2O[C@H]1c1cccc(C(F)(F)F)c1)C(C)C | inactive: 99%
93 | c1cc2c(c(NCc3ccncc3)c1)CCCC2 | inactive: 100%
